# In all, about 310,000 compounds went through this assay and about 2,200 (0.71%) showed an effect of 50% or more. Effects have a minus sign here. Some of the results follow.
# Biological target: human ether-à-go-go-related gene (hERG) potassium channel (human, UniProt Q12809)
# Experiment: primary screen, population patch clamp on CHO cells stably expressing hERG
# human ether-à-go-go-related gene (hERG) potassium channel, sequence (Q12809 whole entry, looked up): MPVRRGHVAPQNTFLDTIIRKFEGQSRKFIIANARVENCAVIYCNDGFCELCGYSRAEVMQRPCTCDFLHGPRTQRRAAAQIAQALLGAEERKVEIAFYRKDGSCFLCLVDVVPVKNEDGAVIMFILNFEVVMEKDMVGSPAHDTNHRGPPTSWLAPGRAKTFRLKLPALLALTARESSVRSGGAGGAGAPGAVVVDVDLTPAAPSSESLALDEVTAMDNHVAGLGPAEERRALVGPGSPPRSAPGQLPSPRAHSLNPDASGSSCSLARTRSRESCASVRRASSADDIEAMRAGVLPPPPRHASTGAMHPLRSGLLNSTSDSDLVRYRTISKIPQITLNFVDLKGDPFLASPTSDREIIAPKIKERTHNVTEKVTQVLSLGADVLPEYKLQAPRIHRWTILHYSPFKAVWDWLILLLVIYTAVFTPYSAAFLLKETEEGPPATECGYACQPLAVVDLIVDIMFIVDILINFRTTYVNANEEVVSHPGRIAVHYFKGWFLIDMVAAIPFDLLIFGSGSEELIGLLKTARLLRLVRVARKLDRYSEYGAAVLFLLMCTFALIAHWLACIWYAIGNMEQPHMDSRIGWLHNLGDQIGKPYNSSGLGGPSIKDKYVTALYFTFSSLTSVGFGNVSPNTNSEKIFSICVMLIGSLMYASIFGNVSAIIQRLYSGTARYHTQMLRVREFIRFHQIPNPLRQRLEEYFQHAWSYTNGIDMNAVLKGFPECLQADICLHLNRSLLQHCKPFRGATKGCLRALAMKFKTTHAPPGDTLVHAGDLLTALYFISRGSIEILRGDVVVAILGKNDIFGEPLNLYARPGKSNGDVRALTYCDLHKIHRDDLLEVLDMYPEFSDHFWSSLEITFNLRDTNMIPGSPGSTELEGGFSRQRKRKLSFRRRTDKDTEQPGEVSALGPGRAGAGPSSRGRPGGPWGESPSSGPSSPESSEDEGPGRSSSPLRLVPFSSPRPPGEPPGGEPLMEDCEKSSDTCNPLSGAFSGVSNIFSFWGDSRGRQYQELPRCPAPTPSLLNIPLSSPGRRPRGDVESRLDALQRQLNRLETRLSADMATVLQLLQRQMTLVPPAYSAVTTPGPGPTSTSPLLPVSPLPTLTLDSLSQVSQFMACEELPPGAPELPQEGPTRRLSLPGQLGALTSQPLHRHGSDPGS
row,SMILES,"hERG current change (%, negative = inhibition) at 1uM [%]"
1,CNS(=O)(=O)c1cccc(C(=O)NC2CCCc3ccccc32)c1 (stereo not shown),1.45
2,O=C(CSc1nccn1-c1ccc(Cl)cc1)N1CCCc2ccccc21,15.5
3,Cc1ccc(CCNC(=O)C2CCN(S(=O)(=O)N3CCCCC3)CC2)cc1,15.9
4,COc1ccc(C(=O)COC(=O)c2ccc3c(c2)OCO3)c(OC)c1,-0.032
5,O=C1NC(CCc2ccccc2)C(=O)N1Cc1ccccc1Cl (stereo not shown),14.8
6,Cc1ccc(NCc2nnc3n2CCCCC3)c(C)c1,11.6
7,Cc1ccccc1N1C(=O)c2ccccc2NC1c1ccncc1 (stereo not shown),13
8,O=C(CCN1CCCCC1)c1ccc2c(c1)OCO2,10.3
9,CCOC(=O)c1[nH]c2ccc(F)cc2c1NC(=O)c1cc(OC)c(OC)c(OC)c1,6.92
10,Clc1ccccc1-c1nc2ccccc2c2nncn12,7.9
11,COc1ccc(CNC(=S)NNC(=O)c2cc3ccccc3o2)cc1,8.92
12,COc1ccc(CCC(=O)OCC(=O)Nc2c(C)n(C)n(-c3ccccc3)c2=O)cc1,-3.51
13,Cc1nnc(SCC(=O)N(C2CCCCC2)C2CCS(=O)(=O)C2)n1N (stereo not shown),14.5
14,CCCS(=O)(=O)N1CCCC(C(=O)NCCc2cccc(C)c2)C1 (stereo not shown),14.6
15,Cc1c(-n2c(=O)n(Cc3ccccc3)c(=O)c3[nH]cnc32)cccc1S(C)=O (stereo not shown),9.92
16,Cc1ccc2[nH]c3c(c2c1)SC(C)(C)CC3=O,14.6
17,COc1ccc(N2CCN(C(=O)NC34CC5CC(CC(C5)C3)C4)CC2)cc1,12.7
18,CCc1[nH]c(C)c(C(C)=O)c1C,14.6
19,O=C1c2cccc3cccc(c23)C(=O)N1OS(=O)(=O)c1ccccc1,13.2
20,O=C(Nc1cccc(Oc2ccc(C(=O)O)c(C(=O)O)c2)c1)c1ccc(-c2ccccc2)cc1,0.678
21,CC(Sc1nnc(CC(=O)Nc2ccccc2F)n1C)C(=O)Nc1nccs1 (stereo not shown),13.8
22,CCOC(=O)c1sc(S(C)(=O)=O)c2c1CCc1conc1-2,14.6
23,NC(=O)Cn1ccc(O)c(Cc2ccc(Cl)cc2Cl)c1=O,13.5
24,CCOC(=O)c1c(C)oc2c1c(C(c1ccncc1)N1CCOCC1)c(O)c1ccccc12 (stereo not shown),12.2
25,Cc1ccc(CCNC(=O)CS(=O)Cc2nc(-c3ccccc3Cl)oc2C)cc1 (stereo not shown),12.3

# Reference: PMC4336329 (PLoS ONE, 2015)
